Experimental data reported in the supplement of paper PMC10369915.
This is one part of the list. No stated cut-off is given here; in the data, active = 3.2 or more and inactive = the rest. Most of these values are background signal.

Target: SHP2 C-SH2 domain E139D
Experiment: enrichment score (SH2-bound / input frequency) (ratio); bacterial display of known human phosphotyrosine sites (pTyr-Var adds point mutants) read by sequencing; higher = stronger binding; tyrosines were phosphorylated by kinases first
Conditions: peptide library: pTyr-Var
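Further: displayed peptides selected on beads carrying the immobilized SH2 domain, with library peptides lacking any tyrosine serving as negative controls.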

Enrichment score, inactive:
WRGMPYGGRGD [TGM1_Y312_R307W] 0.989
RRGMPYGGCGD [TGM1_Y312_R315C] 0.479
RRGMPYGGHGD [TGM1_Y312_R315H] 0.243
RRGMPYGGLGD [TGM1_Y312_R315L] 0.385
EILLSYLRTGY [TGM1_Y365] 2.91
EILLSDLRTGF [TGM1_Y365_Y365D_YF] 1.13
FPRTGYSVPFG [TGM1_Y370_L366P_YF] 0.956
DLRTGYSVPFG [TGM1_Y370_Y365D_YF] 1
RSSPVYVGRVV [TGM2_Y219] 0.905
HSSPVYVGRVV [TGM2_Y219_R214H] 0.958
TYEYKYPEGSS [TGM4_Y440] 0.812
TYQYKYPEGSS [TGM4_Y440_E437Q] 0.838
FSGQVYRQRRK [TH_Y230_D227G] 0.188
SSQILYKLEQS [THADA_Y701_V699I] 1.01
GCKNRYDKGKP [THAP1_Y14_D17G] 2.62
GCKKRYDKDKP [THAP1_Y14_N12K] 0.285
GCKNHYDKDKP [THAP1_Y14_R13H] 1.31
FRVAGYKTQGG [TIA1_Y383_E384K_YF] 0.794

Target: SHP2 C-SH2 domain wild-type
Experiment: as above
Conditions: peptide library: pTyr-Var

Enrichment score, inactive:
WRGMPYGGRGD [TGM1_Y312_R307W] 0.862
RRGMPYGGCGD [TGM1_Y312_R315C] 0.324
RRGMPYGGHGD [TGM1_Y312_R315H] 0.288
RRGMPYGGLGD [TGM1_Y312_R315L] 0.367
EILLSYLRTGY [TGM1_Y365] 2.53
EILLSDLRTGF [TGM1_Y365_Y365D_YF] 0.828
FPRTGYSVPFG [TGM1_Y370_L366P_YF] 0.987
DLRTGYSVPFG [TGM1_Y370_Y365D_YF] 1.19
RSSPVYVGRVV [TGM2_Y219] 0.742
HSSPVYVGRVV [TGM2_Y219_R214H] 0.886
TYEYKYPEGSS [TGM4_Y440] 0.826
TYQYKYPEGSS [TGM4_Y440_E437Q] 0.675
FSGQVYRQRRK [TH_Y230_D227G] 0.186
SSQILYKLEQS [THADA_Y701_V699I] 0.864
GCKNRYDKGKP [THAP1_Y14_D17G] 2.12
GCKKRYDKDKP [THAP1_Y14_N12K] 0.243
GCKNHYDKDKP [THAP1_Y14_R13H] 1.32
FRVAGYKTQGG [TIA1_Y383_E384K_YF] 0.681

Target: SHP2 N-SH2 domain L43F
Experiment: as above
Conditions: peptide library: pTyr-Var

Enrichment score, inactive:
WRGMPYGGRGD [TGM1_Y312_R307W] 0.931
RRGMPYGGCGD [TGM1_Y312_R315C] 0.129
RRGMPYGGHGD [TGM1_Y312_R315H] 0.243
RRGMPYGGLGD [TGM1_Y312_R315L] 0.295
EILLSYLRTGY [TGM1_Y365] 2.62
EILLSDLRTGF [TGM1_Y365_Y365D_YF] 1.07
FPRTGYSVPFG [TGM1_Y370_L366P_YF] 1.46
DLRTGYSVPFG [TGM1_Y370_Y365D_YF] 1.71
RSSPVYVGRVV [TGM2_Y219] 1.07
HSSPVYVGRVV [TGM2_Y219_R214H] 0.758
TYEYKYPEGSS [TGM4_Y440] 0.586
TYQYKYPEGSS [TGM4_Y440_E437Q] 0.746
FSGQVYRQRRK [TH_Y230_D227G] 0.385
SSQILYKLEQS [THADA_Y701_V699I] 0.853
GCKNRYDKGKP [THAP1_Y14_D17G] 2.14
GCKKRYDKDKP [THAP1_Y14_N12K] 0.347
GCKNHYDKDKP [THAP1_Y14_R13H] 1.35
FRVAGYKTQGG [TIA1_Y383_E384K_YF] 0.625

Target: SHP2 N-SH2 domain T42A
Experiment: as above
Conditions: peptide library: pTyr-Var

Enrichment score, inactive:
WRGMPYGGRGD [TGM1_Y312_R307W] 0.768
RRGMPYGGCGD [TGM1_Y312_R315C] 0.375
RRGMPYGGHGD [TGM1_Y312_R315H] 0.288
RRGMPYGGLGD [TGM1_Y312_R315L] 0.283
EILLSYLRTGY [TGM1_Y365] 2.54
EILLSDLRTGF [TGM1_Y365_Y365D_YF] 0.939
FPRTGYSVPFG [TGM1_Y370_L366P_YF] 1.77
DLRTGYSVPFG [TGM1_Y370_Y365D_YF] 1.43
RSSPVYVGRVV [TGM2_Y219] 0.655
HSSPVYVGRVV [TGM2_Y219_R214H] 0.675
TYEYKYPEGSS [TGM4_Y440] 0.592
TYQYKYPEGSS [TGM4_Y440_E437Q] 0.941
FSGQVYRQRRK [TH_Y230_D227G] 0.221
SSQILYKLEQS [THADA_Y701_V699I] 0.859
GCKNRYDKGKP [THAP1_Y14_D17G] 2.26
GCKKRYDKDKP [THAP1_Y14_N12K] 0.376
GCKNHYDKDKP [THAP1_Y14_R13H] 1.25
FRVAGYKTQGG [TIA1_Y383_E384K_YF] 0.603

Target: SHP2 N-SH2 domain T52S
Experiment: as above
Conditions: peptide library: pTyr-Var

Enrichment score, inactive:
WRGMPYGGRGD [TGM1_Y312_R307W] 0.957
RRGMPYGGCGD [TGM1_Y312_R315C] 0.365
RRGMPYGGHGD [TGM1_Y312_R315H] 0.278
RRGMPYGGLGD [TGM1_Y312_R315L] 0.379
EILLSYLRTGY [TGM1_Y365] 2.87
EILLSDLRTGF [TGM1_Y365_Y365D_YF] 1.09
FPRTGYSVPFG [TGM1_Y370_L366P_YF] 1.34
DLRTGYSVPFG [TGM1_Y370_Y365D_YF] 1.2
RSSPVYVGRVV [TGM2_Y219] 0.764
HSSPVYVGRVV [TGM2_Y219_R214H] 0.494
TYEYKYPEGSS [TGM4_Y440] 0.72
TYQYKYPEGSS [TGM4_Y440_E437Q] 0.611
FSGQVYRQRRK [TH_Y230_D227G] 0.325
SSQILYKLEQS [THADA_Y701_V699I] 0.903
GCKNRYDKGKP [THAP1_Y14_D17G] 2.55
GCKKRYDKDKP [THAP1_Y14_N12K] 0.367
GCKNHYDKDKP [THAP1_Y14_R13H] 1.26
FRVAGYKTQGG [TIA1_Y383_E384K_YF] 0.506

Target: SHP2 N-SH2 domain wild-type
Experiment: as above
Conditions: peptide library: pTyr-Var

Enrichment score, inactive:
WRGMPYGGRGD [TGM1_Y312_R307W] 0.983
RRGMPYGGCGD [TGM1_Y312_R315C] 0.494
RRGMPYGGHGD [TGM1_Y312_R315H] 0.36
RRGMPYGGLGD [TGM1_Y312_R315L] 0.391
EILLSYLRTGY [TGM1_Y365] 2.38
EILLSDLRTGF [TGM1_Y365_Y365D_YF] 1.09
FPRTGYSVPFG [TGM1_Y370_L366P_YF] 0.691
DLRTGYSVPFG [TGM1_Y370_Y365D_YF] 0.779
RSSPVYVGRVV [TGM2_Y219] 0.862
HSSPVYVGRVV [TGM2_Y219_R214H] 0.899
TYEYKYPEGSS [TGM4_Y440] 0.887
TYQYKYPEGSS [TGM4_Y440_E437Q] 0.981
FSGQVYRQRRK [TH_Y230_D227G] 0.282
SSQILYKLEQS [THADA_Y701_V699I] 0.964
GCKNRYDKGKP [THAP1_Y14_D17G] 2.07
GCKKRYDKDKP [THAP1_Y14_N12K] 0.353
GCKNHYDKDKP [THAP1_Y14_R13H] 1.49
FRVAGYKTQGG [TIA1_Y383_E384K_YF] 0.661
